Measurements reported in PubChem BioAssay (NCI).
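Assay format: 96-well plates, 48-hour exposure. GI50 = concentration required for 50% inhibition of growth. TGI: total growth inhibition.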

What follows are compounds tested on NCI-H322M lung (assay: DTP human tumour cell line panel, 48 h).

Point of comparison: `CN(C)CC(C(=O)c1ccccc1)c1ccccc1` (configuration not stated), TGI 34 µM. Against it:
- COC1/C=C\C=C(/C)C(=O)NC2=CC(=O)C=C(C2=O)C(OC)C(C)CC(OC)C(OC)C(C)/C=C(/C)C1OC(N)=O (configuration not stated) — within 1.5-fold, 29.8 µM
- O=C(N[C@H](c1ccc(Cl)c(Cl)c1)C1CNC1)c1ccc2cnccc2c1 — 1.6-fold lower, 21.1 µM
- Nn1c(CNc2ccc(-c3nnc(Nc4ccc(Cl)cc4)n3N)cc2)nnc1Nc1ccc(Cl)cc1 — higher, > 100 µM
- Nc1[nH]c(=O)nc2sc3c(c12)CCCC3 — higher, > 100 µM
- COCCc1c(C)c(C#N)c2n(C)c3ccccc3n2c1=O — not separable, > 10 µM
- CS(C)(=O)=N/C=C\C(=O)C(Cl)(Cl)Cl — higher, > 100 µM
- COc1cc2c(cc1OCCCCNC(=O)c1cc3ccccc3[nH]1)N=CC1CCCN1C2=O (configuration not stated) — 1.6-fold higher, 53.5 µM
- CCCc1cc(=O)oc2c(C(=O)CC(C)C)c(O)c(CC=C(C)C)c(O)c12 — higher, > 50 µM
- CCOc1ccc(Cc2nccc3cc(OCC)c(OCC)cc23)cc1OCC — within 1.5-fold, 32.5 µM
- C/C(CC(O)(C(F)(F)F)C(F)(F)F)=N\N — not separable, > 10 µM
- CSC1=N/C(=C\c2cccs2)C(=O)N1CN1CCOCC1 — higher, > 100 µM
- CCN1CCC[C@H]1c1cc(O)c2c(c1OC)C[C@H]1C[C@H]3[C@H](N)C(=O)C(C(N)=O)=C(O)[C@@]3(O)C(=O)C1=C2O — 4.5-fold lower, 7.62 µM
- OC1CN(OC/C=C/c2ccccc2)CC(O)C1O (configuration not stated) — higher, > 100 µM
- O=C(O)CC(NC(=O)C(F)(F)F)C(=O)NC1Cc2ccccc2OC1=O (configuration not stated) — higher, > 100 µM
- CCN(CC)CC(O)c1ccc2ccc3ccccc3c2c1 (configuration not stated) — within 1.5-fold, 29.1 µM
- CN(Cc1cnc2nc(N)nc(N)c2n1)c1ccc(C(=O)NC(CCS(=O)(=O)O)C(=O)O)cc1 (configuration not stated) — higher, > 100 µM
- Nc1nc(N)c2cc(CNc3ccc(Cl)c(Cl)c3)ccc2n1 — 15-fold lower, 2.21 µM
- CCN(CC)CCNc1ccc([N+](=O)[O-])c2nc3ccccc3c(N)c12 — 20-fold lower, 1.74 µM
- COC(=O)/C(C#N)=C\N1CCN(C(=O)c2ccco2)C1=S — within 1.5-fold, 36.3 µM
- CN(C)c1nc(N(C)C)nc(N(C)CN(C)c2ccccc2)n1 — higher, > 100 µM
- Nc1ccc2c(c1)C(=O)c1ccc(F)cc1-2 — higher, > 100 µM
- Nc1nc(-c2ccccc2)c(-c2ccccc2)c(-c2nc(N)nc(-c3ccccc3)c2-c2ccccc2)n1 — higher, > 100 µM
- CC(C)OP(=O)(OC(C)C)C(C(F)(F)F)C(F)(F)F — higher, > 100 µM
- O=S(=O)(NCCNc1nccc(-c2c(-c3cccc(O)c3)nc3sccn23)n1)c1ccc(F)cc1 — within 1.5-fold, 40.6 µM
- CC(C)(O)[C@@H]1CCC(C)([C@H]2[C@@H](O)CC3(C)C4CC(OC5OC(CO)C(O)C(O)C5O)C5C(C)(C)[C@@H](OC6OCC(O)C(O)C6O)CC[C@@]56C[C@@]46CC[C@]23C)O1 (some centres not stated) — higher, > 100 µM
- O=C1C(NS(=O)(=O)c2ccccc2)=C(n2cnc3ccccc32)C(=O)c2ccccc21 — higher, > 100 µM
- C=CCN1CCC(OC(=O)C(O)(/C=C\CC)C2CCCC2)CC1 (configuration not stated) — higher, > 100 µM
- CC1C2Cc3ccc(O)cc3C1(C)CCN2C (configuration not stated) — higher, > 100 µM
- O=[N+]([O-])c1cc2n[nH]nc2c2nonc12 — higher, > 100 µM
- Fc1ccc(-c2nc(-c3nc4ccc(Cl)cc4[nH]3)cc3c2[nH]c2ccccc23)cc1 — 1.8-fold lower, 18.6 µM
- C=C1C(=O)OC2CCCCC3OC3C12 (configuration not stated) — within 1.5-fold, 42.7 µM
- O=C(Nc1ccc(Cl)cc1)c1cc(S(=O)(=O)Nc2n[nH]c(=O)[nH]2)c(SSc2cc(Cl)c(C(=O)Nc3ccc(Cl)cc3)cc2S(=O)(=O)Nc2n[nH]c(=O)[nH]2)cc1Cl — higher, > 100 µM
- CN(CCCNC(=O)c1cn(C)c2c1ccc1cc(Cl)ccc12)CCCNC(=O)c1cn(C)c2c1ccc1cc(Cl)ccc12 — 6.1-fold lower, 5.53 µM
- O=C(Nc1cccc(Cl)c1)Nc1cccc(Cl)c1 — higher, > 100 µM
- COC(=O)N1CC[C@@H]2CCC=C(c3cccc4c3OCO4)[C@@H]21 — higher, > 100 µM
- O=C1/C(=C/c2ccc(O)cc2)NC(=S)N1CN1CCCCC1 — higher, > 100 µM
- CN(C)CCNC(=O)c1cccc2nc3ccc4ccccc4c3nc12 — 50-fold lower, 0.68 µM
- O=c1oc2ncccc2n1Cc1ccc([N+](=O)[O-])cc1 — higher, > 100 µM
- O=C(NCCCN1CCN(CCCNC(=O)c2cnc3ccccc3n2)CC1)c1cnc2ccccc2n1 — higher, > 100 µM
- COc1ccc(-c2cc(-c3ccccc3)n(C3OC(COC(C)=O)C(OC(C)=O)C(OC(C)=O)C3OC(C)=O)c(=S)c2C#N)cc1 (configuration not stated) — within 1.5-fold, 27.4 µM
- OC(c1cc(C(O)(C(F)(F)F)C(F)(F)F)ncn1)(C(F)(F)F)C(F)(F)F — not separable, > 10 µM
- CN(C)c1cccc(-c2cc(=O)c3ccccc3[nH]2)c1 — higher, > 100 µM
- COc1ccc(/C=C2\N=C(c3ccccc3)OC2=O)c(OCc2ccccc2)c1 — 2.6-fold higher, 89.6 µM
- O=C(NC(=O)c1cn(CCN2CCNCC2)c(=O)[nH]c1=O)OCc1ccccc1 — higher, > 100 µM
- CCN(CC)CCN1c2ccccc2Sc2ccc3ccccc3c21 — within 1.5-fold, 23.1 µM
- C=CCn1c2ccccc2c2c(C)c3cnccc3c(C)c21 — higher, > 125 µM
- CN(c1c(Cl)cccc1Cl)S(=O)(=O)c1ccccc1[N+](=O)[O-] — higher, > 100 µM
- Cn1c(-c2ccccc2)cc(-c2ccc3c(c2)OCO3)c1-c1cccs1 — higher, > 100 µM
- O=C(CCc1nnc2s/c(=C\c3ccccc3)c(=O)n12)Nc1cc(Cl)ccc1Cl — higher, > 100 µM
- Cc1ccc2nc3c(Cl)cc(=O)cc-3sc2c1 — higher, > 100 µM

Point of comparison: `CCN1CCC[C@H]1c1cc(O)c2c(c1OC)C[C@H]1C[C@H]3[C@H](N)C(=O)C(C(N)=O)=C(O)[C@@]3(O)C(=O)C1=C2O`, GI50 0.065 µM. Against it:
- O=C(N[C@H](c1ccc(Cl)c(Cl)c1)C1CNC1)c1ccc2cnccc2c1 — 110-fold higher, 7.2 µM
- COc1cc2c(cc1OCCCCNC(=O)c1cc3ccccc3[nH]1)N=CC1CCCN1C2=O (configuration not stated) — 380-fold higher, 25 µM
- CCCc1cc(=O)oc2c(C(=O)CC(C)C)c(O)c(CC=C(C)C)c(O)c12 — 210-fold higher, 13.4 µM
- CCOc1ccc(Cc2nccc3cc(OCC)c(OCC)cc23)cc1OCC — 130-fold higher, 8.36 µM
- Nc1nc(N)c2cc(CNc3ccc(Cl)c(Cl)c3)ccc2n1 — 15-fold higher, 0.995 µM
- COC(=O)/C(C#N)=C\N1CCN(C(=O)c2ccco2)C1=S — 220-fold higher, 14 µM
- O=S(=O)(NCCNc1nccc(-c2c(-c3cccc(O)c3)nc3sccn23)n1)c1ccc(F)cc1 — 200-fold higher, 12.7 µM
- CN(C)CC(C(=O)c1ccccc1)c1ccccc1 (configuration not stated) — 240-fold higher, 15.8 µM
- Fc1ccc(-c2nc(-c3nc4ccc(Cl)cc4[nH]3)cc3c2[nH]c2ccccc23)cc1 — 54-fold higher, 3.54 µM
- O=C(Nc1cccc(Cl)c1)Nc1cccc(Cl)c1 — higher, > 100 µM
